Measurements published in PubChem BioAssay AID1159614 (National Center for Advancing Translational Sciences (NCATS), 2016).
In all, about 45,000 compounds went through this assay and about 65 (0.1%) were called active. Calls follow the shape of the dose curve; as a rule, active = well fitted activation curve with a large enough effect; inconclusive = small, poorly fitted or top-dose-only effect; inactive = no such curve, though single readings can be large or run the other way. This is one part of the list.

These compounds were tested against Galactocerebrosidase (Homo sapiens) (UniProt P54803) (assay: A Novel Cell-Based Assay to Identify Small Molecules for B -Galactocerebrosidase). Details: 145M-Twi-hGALC-G270D cells, HMU-beta-Gal fluorescence, 48 h; series mostly up to 57.5 µM; activation: at the top concentration.
Procedure, shortened: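 qHTS, 1536-well; 145M-Twi-hGALC-G270D cells (WT line also made) in DMEM/F12 + 10% FBS; compound incubation on live cells; HMU-β-gal 0.1 mM final, pH 5.2, NaTC; carbonate stop; fluorescence increase = enhanced residual activity.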
Also: 0% is about no effect; nearly all actives have a fitted effect of over 65% in size.

UniProt P54803, sequence (P54803 whole entry, looked up): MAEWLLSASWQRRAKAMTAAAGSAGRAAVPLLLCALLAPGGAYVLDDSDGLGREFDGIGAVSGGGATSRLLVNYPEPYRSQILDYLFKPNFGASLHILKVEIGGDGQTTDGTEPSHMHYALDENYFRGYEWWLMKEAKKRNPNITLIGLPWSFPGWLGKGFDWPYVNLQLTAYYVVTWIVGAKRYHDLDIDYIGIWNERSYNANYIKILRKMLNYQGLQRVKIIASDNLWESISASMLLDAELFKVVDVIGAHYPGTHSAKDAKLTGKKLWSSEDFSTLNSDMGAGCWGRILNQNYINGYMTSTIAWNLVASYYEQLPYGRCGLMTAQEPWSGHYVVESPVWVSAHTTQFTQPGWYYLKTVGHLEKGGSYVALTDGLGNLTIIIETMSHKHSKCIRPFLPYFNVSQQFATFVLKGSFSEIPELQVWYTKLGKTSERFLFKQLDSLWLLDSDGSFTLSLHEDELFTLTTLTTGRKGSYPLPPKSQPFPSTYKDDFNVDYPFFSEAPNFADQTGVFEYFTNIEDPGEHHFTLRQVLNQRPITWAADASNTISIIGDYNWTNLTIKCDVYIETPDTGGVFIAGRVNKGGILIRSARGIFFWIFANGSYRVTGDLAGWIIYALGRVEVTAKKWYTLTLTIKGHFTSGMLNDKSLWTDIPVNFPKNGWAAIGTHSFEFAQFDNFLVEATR

activation, inactive:
CC(=O)c1ccc(NC(=O)Cn2ncc3c(C)n(Cc4ccc(F)cc4)c(C)c3c2=O)cc1 -15.1%, CCN(CC)C(=O)CSc1nc2ccccc2c(=O)n1Cc1ccco1 -5.86%, CCCc1nccn1S(=O)(=O)c1cc(Br)ccc1OC -21%, COc1ccc(Cl)cc1NC(=O)N1CC(=O)Nc2sc3c(c2C1c1ccccc1)CCCC3 (stereo unspecified) -13.8%, Cc1ccc(NC(=O)Cn2c(-c3cncs3)nc3ccccc32)cc1Br -9.31%, COc1ccc(NC(=O)CN2C(=O)CCc3cc(S(=O)(=O)N4CCOCC4)ccc32)cc1Cl -11.5%, CCN(C(=O)Cn1c(=O)n(CC2CCC(C(=O)NC)CC2)c(=O)c2sccc21)c1ccccc1 (stereo unspecified) -7.41%, COc1cc2c(C(=O)N(C)c3cc(Cl)ccc3OC)cn(CC(C)C)c(=O)c2cc1OC -9.75%, Cc1nn(CCCC(=O)Nc2cccc(F)c2)c(=O)c2c1sc1ccccc12 -8.75%, O=C(Nc1ccccc1)c1cn(-c2ccccc2)nc1-c1ccccc1 -12.4%, COc1ccccc1NC(=O)CSC1=Nc2ccccc2N=C(c2ccc(F)cc2)C1 -9.35%, Cc1cccc(-n2c3nc(=O)[nH]c(=O)c-3cc3c(C)nn(-c4ccccc4)c32)c1C -9.19%, Cc1oc(C)c2c(=O)cc(-c3ccc4c(c3)OCO4)cc(OC(=O)c3ccc(Cl)cc3)c12 -3.59%, Cc1ccc(CNC(=O)c2ccc3c(c2)N(Cc2cccc(C)c2)C(=O)CS3)cc1 -11%, Cc1ccc(-c2nn(CC(=O)Nc3cccc(C(F)(F)F)c3)c(=O)c3ccccc23)cc1 -10.7%, Cc1ccc(-c2nonc2NC(=O)c2ccco2)cc1C -14.7%, COc1cc(CNc2ccc3[nH]c(=O)[nH]c3c2)cc(Cl)c1OCc1ccccc1F -7.57%, Cc1ccc(-c2nc3ccccc3[nH]2)cc1NC(=O)COc1cccc(C)c1C 0.722%, COc1ccc(C)cc1NC(=O)CCn1nc(C)cc1C -29.9%, Cc1ccccc1C(=O)Nc1ccc(C(=O)N2CCCC(N(C)C)c3ccccc32)cc1 (stereo unspecified) -9.93%, Cc1cccc(C)c1NC(=O)CSCc1cnn(-c2ccccc2)c1-n1cccc1 -8.37%, COc1ccccc1Cn1c(CNS(=O)(=O)c2cccc([N+](=O)[O-])c2)nc2cccnc21 1.52%, NC(CSCC(=O)O)C(=O)O (stereo unspecified) -11.1%, CCC(Sc1nc2ccccc2c2nc(CCc3c(C)n[nH]c3C)nn12)C(=O)Nc1ccccc1F (stereo unspecified) -17%, COC(=O)c1ccc(NC(=O)CSc2n[nH]c(CC(C)C)n2)cc1 -9.69%, Cc1ccc(NC(=O)Cn2c(=O)c(CNc3ccccc3)cc3cc4c(cc32)OCCO4)cc1 -8.8%, CCN(CC)C(=O)C1=C(C)Nc2nc3ccccc3n2C1c1cccc(Cl)c1 (stereo unspecified) -12.8%, COc1ccc(CNC(=O)c2cc3cccc(OC)c3oc2=O)cc1 -13.5%, CC(=O)O[C@H]1CC[C@@]2(C)C(=CC[C@@H]3[C@@H]2CC[C@]2(C)C(C(C)=O)=CC[C@@H]32)C1 -16.9%, COc1ccc(NC(=O)CSC2=Nc3ccccc3C3=NC(CCC(=O)NCCc4ccccc4)C(=O)N23)c(OC)c1 (stereo unspecified) -13.3%, O=C(NCc1ccco1)c1ccc2c(c1)N(Cc1ccccc1F)C(=O)c1ccccc1S2=O (stereo unspecified) -7.33%, CCn1cc(C(=O)N2CCN(c3ccc(OC)cc3)CC2)c(=O)c2cc(S(=O)(=O)N(C)C3CCCCC3)ccc21 -10.7%, COc1cccc(CNC(=O)c2nn(C)c3c2CS(=O)(=O)c2ccccc2-3)c1 -12.9%, COc1ccc(CNC(=O)c2cc(C)nc3c2c(C)nn3-c2cccc(Cl)c2C)cc1 -12.4%, COc1cccc(NC(=O)C(CCSC)NC(=O)C2CCC(C)CC2)c1 (stereo unspecified) -4.01%, CC(C)CN(CCCNC(=O)c1cn(C)c2ccc(S(=O)(=O)N(C)C3CCCCC3)cc2c1=O)CC(C)C -5.99%, Cc1cccc(OC(=O)c2cc(-c3ccc(Cl)cc3)on2)c1C -11.3%, CCOc1ccc(C2=CC(c3cc(Br)ccc3F)n3ncnc3N2)cc1Cl (stereo unspecified) -9.36%, CCOc1ccc(S(=O)(=O)N(C(=O)c2ccncc2)c2ccc3oc(C)c(C(=O)OC)c3c2)cc1 -17.5%, COc1ccc(C)cc1NC(=O)CC(=O)Nc1ccc2nc3n(c(=O)c2c1)CCCCC3 -12.9%, CC(C)[C@@H]1CC[C@@H](C)CC1=O 13.6%, CC(=O)c1cc2ccccc2s1 -19.3%, O=C(COC(=O)c1cc(-c2ccccc2)nc2c(Cl)cccc12)c1ccc(F)cc1 -24.7%, O=C(NCCc1csc(-c2ccc(F)cc2)n1)c1c(F)cccc1Cl -12.9%, CC(C)C(=O)Nc1cccc(C2CN3CCSC3=N2)c1 (stereo unspecified) -5.59%, Cc1nn(CC(=O)Nc2cccc(C(F)(F)F)c2)c(=O)c2nn(-c3ccccc3)c(C)c12 -20.6%, CN(C(=O)CSc1nc2ccccc2n1Cc1cccc(C(F)(F)F)c1)c1ccccc1 -46.8%, CC(C)CSc1oc(-c2ccco2)nc1S(=O)(=O)c1ccc(Br)cc1 -6.57%, CCOc1ccc(-n2c(=O)c3c(C)c(C)sc3n(Cc3cc(=O)n4cc(Cl)ccc4n3)c2=O)cc1 -1.39%, CC(=O)c1cccc(NS(=O)(=O)c2ccc3[nH]c4c(c3c2)CCCCC4)c1 -6.46%, COc1ccc(CNC(=O)Cn2c(=O)n3nc(-c4ccc(OC)cc4)nc3c3ccccc32)cc1 -15.4%, O=C(O)/C=C(\CC(=O)O)C(=O)O -6.52%, CCOc1ccc(C(=O)Nc2ccc3nc(Nc4cccc(C(F)(F)F)c4)cc(C)c3c2)cc1OCC -16.2%, COc1ccc(-c2c(C)nn3c(C(F)(F)F)cc(-c4ccc(C)cc4)nc23)cc1 -1.92%, COc1ccc(-c2noc(CSc3nnc(C)n3-c3ccc(F)cc3)n2)cc1 -6.42%, Cc1cn2c(=O)c(S(=O)(=O)Nc3ccc(OC(F)(F)F)cc3)c(C)nc2s1 -17.4%, COc1ccc(NC(=O)C(c2ccccc2)N(C)C(=O)/C=C\c2ccc3c(c2)OCO3)cc1 (stereo unspecified) -13.8%, CCOc1ccc(NC(=O)N2CC3CCCN3c3ccccc32)cc1 (stereo unspecified) -8.24%, CC(=O)NNc1ncnc2c1cnn2-c1ccccc1 -12.9%, Cc1ccccc1OCC(=O)Nc1c(C(=O)Nc2ccccc2F)oc2ccccc12 -15.2%, Cc1ccccc1NS(=O)(=O)c1ccc2[nH]cc(C(=O)NCCc3ccccc3)c(=O)c2c1 -15%, COC(=O)c1cnc(N2CCN(c3ccc(OC)cc3)CC2)c2ccccc12 -10.9%, COC(=O)c1c(-c2ccc(Cl)cc2)noc1N1CCN(c2ccc(C(C)=O)cc2)CC1 -16.3%, CCCNC(=O)CCc1c(C)nc2nc(CNC(=O)c3ccccc3)nn2c1C -6.68%, CCCCc1ccc(NC(=O)CSc2nc3ccccc3nc2N2CCCCC2)cc1 -1.96%, CCOC(=O)c1ccc(NC(=O)CS(=O)(=O)Cc2nc(-c3ccc(C)cc3)oc2C)cc1 -16.8%, Cc1ccc(NC(=O)CN2C(=O)CC(c3ccco3)Sc3ccccc32)cc1Cl (stereo unspecified) 1.54%, COc1ccc(NC(=O)c2oc3ccccc3c2NC(=O)c2cc3ccccc3o2)c(OC)c1 6.15%, Cc1ccc(F)cc1NC(=O)CSc1nc(-c2cccs2)cc(C(F)(F)F)n1 -10.2%, CCOc1ccc(NC(=O)C(CC)n2nc(C)c3c(C)n(-c4ccccc4)nc3c2=O)cc1 (stereo unspecified) -12.9%, COc1cc(C(CC(=O)NCc2ccccc2Cl)N2Cc3ccccc3C2=O)cc(OC)c1OC (stereo unspecified) -8.51%, CCn1c2ccccc2c2cc(CN3CCN(Cc4cccc(Cl)c4)CC3)ccc21 -23.2%, COc1cccc(NC(=O)CCNC(=O)Cn2cnc3ccccc3c2=O)c1 -32.7%, COC(=O)c1ccccc1NC(=O)CCCn1nc(C)c2c(C)n(-c3ccccc3)nc2c1=O -5.21%, CCOc1ccccc1CNC(=O)c1ccc(-n2c(C)cc3c2CCC(C)C3)cc1 (stereo unspecified) -19.2%, Cc1ccc(-c2onc(C)c2C)cc1S(=O)(=O)N1CCN(c2ccccc2F)CC1 -17.9%, COc1cc(OC)c(NC(=O)Nc2ccc3c(c2)N(C)C(=O)c2ccccc2S3)cc1Cl -20.8%, COc1cc(OC)cc(-n2c(=O)c3sccc3n(Cc3ccc(F)cc3)c2=O)c1 1.81%, Cc1cc(Cl)ccc1NC(=O)CSc1nc2c(c(=O)[nH]1)CCC2 -10.3%, CCCOc1ccc(Oc2nc(NC)nc(N3CCOCC3)n2)nn1 8.13%, COC(=O)c1sc(N2C(=O)c3oc4ccc(C)cc4c(=O)c3C2c2ccc(OC)cc2)nc1C (stereo unspecified) -15.3%, Cc1ccc(NC(=O)C(=O)NCC(c2cccnc2)N2CCN(Cc3ccccc3)CC2)cc1Cl (stereo unspecified) -10.7%, Cc1ccc(C(=O)O)cc1NC(=O)c1nsc2ccccc12 -1.31%, Cc1ccc(CNC(=O)c2cc(-c3ccc(C)c(C)c3)nc3ccccc23)cc1 4.98%, COc1ccc(CCNC(=O)CN2C(=O)COc3ccc(S(=O)(=O)N4CCCC4)cc32)cc1OC -4.5%, Cc1ccc(Cl)cc1N1CCN(c2nc3ccccc3c3nc(-c4cccnc4)nn23)CC1 1.07%, CCOc1ccc(NC(=O)Cn2c(=O)n(CCCCC(=O)NCCc3ccc(Cl)cc3)c(=O)c3ccccc32)cc1 0.638%, CCOc1ccc(C(=O)Nc2ccc3oc(-c4ccc(C)cc4C)nc3c2)cc1Br 0.634%, O=C(Nc1cccc(Cl)c1)N1CC2CCCN2c2ccccc21 (stereo unspecified) -14.2%, O=C(C1CCC(CNS(=O)(=O)c2ccc(Br)s2)CC1)N1CCN(c2ccc(F)cc2)CC1 (stereo unspecified) -33%, CCc1ccccc1NC(=O)CC1NCCNC1=O (stereo unspecified) -11.6%, COc1ccc(-c2nc3n(n2)C(c2ccccc2OC)C(C(=O)Nc2cccnc2)=C(C)N3)cc1 (stereo unspecified) -14.7%, CCOc1ccccc1NC(=O)c1c2c(nc3ccccc13)C(=O)N(C1CCCCC1)C2 -8.77%, CCOc1ccc(-n2c(SCC(=O)NCc3ccccc3)nc3n[nH]c(C)c3c2=N)cc1 -6.98%, CCOC(=O)N1CCc2c(sc(NCc3ccc(N(CC)CC)cc3)c2C(=O)Nc2cc(OC)ccc2OC)C1 -15.7%, O=S(=O)(NCC(c1cccs1)S(=O)(=O)c1ccccc1)c1ccccc1 (stereo unspecified) -15.7%
